The record followed here is paper PMC10313376.

Chains of the proteins cited; added tags and fusions are not shown. Residues count along the entry.
UniProt Q91VN0, residues 31-1614: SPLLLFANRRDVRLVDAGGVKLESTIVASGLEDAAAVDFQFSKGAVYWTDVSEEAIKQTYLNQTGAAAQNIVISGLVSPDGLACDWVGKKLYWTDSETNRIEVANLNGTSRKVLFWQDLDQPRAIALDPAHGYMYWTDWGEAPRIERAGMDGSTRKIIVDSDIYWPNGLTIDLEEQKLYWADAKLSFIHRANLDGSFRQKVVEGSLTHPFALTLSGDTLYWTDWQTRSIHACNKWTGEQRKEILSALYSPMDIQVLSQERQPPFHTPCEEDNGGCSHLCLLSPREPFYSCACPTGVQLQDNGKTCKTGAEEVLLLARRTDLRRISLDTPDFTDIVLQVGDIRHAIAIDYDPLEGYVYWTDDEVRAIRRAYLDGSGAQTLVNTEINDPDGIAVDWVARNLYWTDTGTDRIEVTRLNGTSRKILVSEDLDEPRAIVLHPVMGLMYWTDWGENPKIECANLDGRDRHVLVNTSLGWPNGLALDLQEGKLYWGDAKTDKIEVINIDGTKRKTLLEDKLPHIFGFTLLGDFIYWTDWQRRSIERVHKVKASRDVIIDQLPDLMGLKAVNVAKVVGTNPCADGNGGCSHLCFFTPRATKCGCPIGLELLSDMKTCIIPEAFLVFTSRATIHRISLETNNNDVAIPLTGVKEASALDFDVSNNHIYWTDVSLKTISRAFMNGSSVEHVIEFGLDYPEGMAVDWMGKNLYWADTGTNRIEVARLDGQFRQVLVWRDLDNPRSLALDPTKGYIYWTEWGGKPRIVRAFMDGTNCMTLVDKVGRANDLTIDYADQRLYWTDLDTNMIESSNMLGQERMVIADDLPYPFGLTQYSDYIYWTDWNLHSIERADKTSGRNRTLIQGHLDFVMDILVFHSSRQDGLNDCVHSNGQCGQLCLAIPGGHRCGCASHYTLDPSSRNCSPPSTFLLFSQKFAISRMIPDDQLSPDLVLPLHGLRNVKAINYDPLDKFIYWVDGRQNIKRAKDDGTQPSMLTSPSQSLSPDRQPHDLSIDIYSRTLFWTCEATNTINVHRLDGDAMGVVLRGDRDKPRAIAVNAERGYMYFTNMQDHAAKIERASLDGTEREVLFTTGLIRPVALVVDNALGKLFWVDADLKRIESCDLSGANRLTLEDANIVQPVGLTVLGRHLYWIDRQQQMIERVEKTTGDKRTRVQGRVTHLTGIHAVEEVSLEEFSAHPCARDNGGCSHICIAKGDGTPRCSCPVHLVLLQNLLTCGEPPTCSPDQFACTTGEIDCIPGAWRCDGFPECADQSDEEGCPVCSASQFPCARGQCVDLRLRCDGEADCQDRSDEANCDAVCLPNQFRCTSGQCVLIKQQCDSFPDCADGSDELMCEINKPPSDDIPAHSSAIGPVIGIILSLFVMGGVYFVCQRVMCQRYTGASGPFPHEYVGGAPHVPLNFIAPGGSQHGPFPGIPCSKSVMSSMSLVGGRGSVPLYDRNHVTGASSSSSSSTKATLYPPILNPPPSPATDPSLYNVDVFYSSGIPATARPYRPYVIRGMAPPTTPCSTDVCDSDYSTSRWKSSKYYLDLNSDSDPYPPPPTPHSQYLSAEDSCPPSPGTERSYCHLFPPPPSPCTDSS
UniProt O88572, residues 20-1613: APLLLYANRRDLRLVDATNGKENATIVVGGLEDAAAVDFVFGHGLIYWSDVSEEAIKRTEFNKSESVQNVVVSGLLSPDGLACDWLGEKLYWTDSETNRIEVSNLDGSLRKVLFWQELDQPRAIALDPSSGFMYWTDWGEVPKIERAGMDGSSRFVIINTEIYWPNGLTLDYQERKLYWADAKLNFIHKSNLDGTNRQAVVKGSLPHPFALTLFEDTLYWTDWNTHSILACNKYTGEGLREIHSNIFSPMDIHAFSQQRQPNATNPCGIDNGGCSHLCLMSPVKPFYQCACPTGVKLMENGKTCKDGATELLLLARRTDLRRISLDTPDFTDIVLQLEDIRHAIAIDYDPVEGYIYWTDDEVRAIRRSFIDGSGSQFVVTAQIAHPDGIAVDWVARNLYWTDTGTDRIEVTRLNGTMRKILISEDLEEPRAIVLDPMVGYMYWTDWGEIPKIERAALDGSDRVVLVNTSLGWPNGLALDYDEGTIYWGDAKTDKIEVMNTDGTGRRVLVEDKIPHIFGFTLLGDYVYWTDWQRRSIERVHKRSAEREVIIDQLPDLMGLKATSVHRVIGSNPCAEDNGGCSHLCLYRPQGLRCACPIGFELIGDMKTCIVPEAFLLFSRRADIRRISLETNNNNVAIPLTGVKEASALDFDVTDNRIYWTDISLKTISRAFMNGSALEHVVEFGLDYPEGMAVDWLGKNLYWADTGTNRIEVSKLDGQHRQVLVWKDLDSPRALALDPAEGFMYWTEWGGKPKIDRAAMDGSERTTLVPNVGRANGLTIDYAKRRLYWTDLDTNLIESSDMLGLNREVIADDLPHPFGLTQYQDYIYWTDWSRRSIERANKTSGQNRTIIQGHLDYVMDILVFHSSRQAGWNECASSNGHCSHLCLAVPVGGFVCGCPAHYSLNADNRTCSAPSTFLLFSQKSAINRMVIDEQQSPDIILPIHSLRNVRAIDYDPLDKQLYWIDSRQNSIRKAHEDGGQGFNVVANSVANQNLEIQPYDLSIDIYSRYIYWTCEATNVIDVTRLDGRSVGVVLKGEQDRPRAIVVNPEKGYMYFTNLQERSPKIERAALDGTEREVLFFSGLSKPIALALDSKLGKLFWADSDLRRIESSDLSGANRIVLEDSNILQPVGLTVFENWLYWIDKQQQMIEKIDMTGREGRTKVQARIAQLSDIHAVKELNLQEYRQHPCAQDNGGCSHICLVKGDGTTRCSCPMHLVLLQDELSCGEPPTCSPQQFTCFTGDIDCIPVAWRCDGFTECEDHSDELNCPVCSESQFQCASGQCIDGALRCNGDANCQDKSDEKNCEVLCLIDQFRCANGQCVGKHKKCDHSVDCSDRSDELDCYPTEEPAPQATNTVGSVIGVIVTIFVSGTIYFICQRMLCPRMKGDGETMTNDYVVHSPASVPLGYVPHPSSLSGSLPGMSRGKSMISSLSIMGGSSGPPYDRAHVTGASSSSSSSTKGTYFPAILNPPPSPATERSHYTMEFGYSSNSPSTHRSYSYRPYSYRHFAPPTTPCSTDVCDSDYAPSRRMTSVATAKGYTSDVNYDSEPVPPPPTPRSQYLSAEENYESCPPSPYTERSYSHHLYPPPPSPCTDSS
UniProt O75581, residues 20-1613: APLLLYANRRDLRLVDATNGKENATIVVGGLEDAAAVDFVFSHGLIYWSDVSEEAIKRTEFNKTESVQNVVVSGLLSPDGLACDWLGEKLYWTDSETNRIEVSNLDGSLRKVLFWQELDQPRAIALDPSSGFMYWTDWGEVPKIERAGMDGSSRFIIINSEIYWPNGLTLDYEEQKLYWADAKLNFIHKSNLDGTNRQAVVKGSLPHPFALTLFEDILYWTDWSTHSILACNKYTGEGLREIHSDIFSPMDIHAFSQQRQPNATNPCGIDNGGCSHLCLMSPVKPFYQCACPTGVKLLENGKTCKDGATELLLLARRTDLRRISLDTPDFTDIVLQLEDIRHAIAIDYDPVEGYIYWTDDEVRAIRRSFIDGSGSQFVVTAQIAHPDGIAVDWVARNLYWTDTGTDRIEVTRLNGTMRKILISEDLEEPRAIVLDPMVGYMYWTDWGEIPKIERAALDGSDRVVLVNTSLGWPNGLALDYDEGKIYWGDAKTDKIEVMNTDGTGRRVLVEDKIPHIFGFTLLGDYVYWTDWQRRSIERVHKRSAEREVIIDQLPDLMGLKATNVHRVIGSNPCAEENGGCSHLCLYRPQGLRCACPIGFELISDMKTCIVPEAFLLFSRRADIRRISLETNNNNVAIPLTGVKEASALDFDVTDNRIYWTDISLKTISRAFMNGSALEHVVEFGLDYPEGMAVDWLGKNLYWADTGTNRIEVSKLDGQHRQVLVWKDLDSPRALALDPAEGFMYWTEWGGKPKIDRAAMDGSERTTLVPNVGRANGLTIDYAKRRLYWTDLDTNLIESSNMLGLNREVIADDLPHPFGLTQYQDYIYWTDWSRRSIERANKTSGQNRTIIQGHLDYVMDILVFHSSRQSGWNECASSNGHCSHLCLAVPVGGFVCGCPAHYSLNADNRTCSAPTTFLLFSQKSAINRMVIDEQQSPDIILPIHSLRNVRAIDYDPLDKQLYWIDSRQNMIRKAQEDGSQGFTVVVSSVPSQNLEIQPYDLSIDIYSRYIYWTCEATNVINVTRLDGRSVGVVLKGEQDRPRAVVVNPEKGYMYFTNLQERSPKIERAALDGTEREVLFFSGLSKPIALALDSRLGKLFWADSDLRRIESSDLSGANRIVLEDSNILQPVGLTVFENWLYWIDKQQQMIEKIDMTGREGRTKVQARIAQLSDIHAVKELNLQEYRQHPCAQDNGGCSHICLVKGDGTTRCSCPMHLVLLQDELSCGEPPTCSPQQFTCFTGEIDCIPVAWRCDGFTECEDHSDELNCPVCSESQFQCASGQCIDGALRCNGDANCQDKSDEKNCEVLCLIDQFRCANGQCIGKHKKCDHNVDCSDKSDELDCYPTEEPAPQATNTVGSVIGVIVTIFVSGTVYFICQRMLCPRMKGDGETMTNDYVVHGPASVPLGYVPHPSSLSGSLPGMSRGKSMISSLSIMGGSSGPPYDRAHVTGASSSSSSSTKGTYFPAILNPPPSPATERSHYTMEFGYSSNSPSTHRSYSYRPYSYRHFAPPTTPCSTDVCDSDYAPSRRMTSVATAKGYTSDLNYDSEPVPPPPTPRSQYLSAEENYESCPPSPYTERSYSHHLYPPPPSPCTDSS

No constants are given. Whether binding was seen depends on the method and setting. Binding seen in cells or lysates may run through a third protein. Some entries that bind do so weakly or less than the wild type. Where a sequence is shown, tags or fusion partners need not be part of it.

Assay [1] concerns the target FLAG-tagged mouse LRP5 (mouse) (UniProt Q91VN0). Briefly: co-IP; co-immunoprecipitation of V5-mSELENOP constructs with FLAG-mLRP5 (Supplemental Figure 11).
Assay [2] deals with FLAG-tagged mouse LRP6 (mouse) (UniProt O88572). Briefly: proximity ligation; 293T cells transfected with FLAG-mLRP6 and V5-mSELENOP overexpression constructs.
For assay [3] the target is unchanged. Briefly: co-IP; FLAG IP (ANTI-FLAG M2 Affinity Gel, 2 mg total protein, elution with FLAG peptide) from 293T cells cotransfected with FLAG-mLRP6 and mSELENOP constructs, blot for LRP6 and SELENOP or V5.
Assay [4] addresses FLAG-tagged endogenous LRP6 (293T-FLAG-LRP6 cells) (human (endogenous in 293T)) (UniProt O75581). Briefly: co-IP; FLAG IP (ANTI-FLAG M2 Affinity Gel, elution with FLAG peptide) from 293T-FLAG-LRP6 cell lysates, blot for FLAG and SELENOP; parental 293T as control; also after 50 mM sodium chlorate for 48 hours (co-IP markedly enhanced).
For assay [5] the target is unchanged. Briefly: condition: only cells treated with 1 mg/mL heparin for 48 hours; co-IP; FLAG IP from 293T-FLAG-LRP6 cells treated with 1 mg/mL heparin for 48 hours before the IP, blot for FLAG and SELENOP.

B1: V5-tagged mouse SELENOP, full-length (protein, UniProt P70274 20-380)
chain: ESQGQSSACYKAPEWYIGDQNPMLNSEGKVTVVALLQASUYLCLLQASRLEDLRIKLESQGYFNISYIVVNHQGSPSQLKHSHLKKQVSEHIAVYRQEEDGIDVWTLLNGNKDDFLIYDRCGRLVYHLGLPYSFLTFPYVEEAIKIAYCEERCGNCNLTSLEDEDFCKTVTSATANKTAEPSEAHSHHKHHNKHGQEHLGSSKPSENQQPGPSETTLPPSGLHHHHRHRGQHRQGHLESUDTTASEGLHLSLAQRKLURRGCINQLLCKLSKESEAAPSSCCCHCRHLIFEKSGSAIAUQCAENLPSLCSUQGLFAEEKVTESCQCRSPPAAUQNQPMNPMEANPNUSUDNQTRKUKUHSN
modifications: selenocysteines (U); third at U258, fourth at U299
With B1, the binding entry in assay [1], in assay [2] and in assay [3] was “binds” throughout.

B2: selenoprotein P (SELENOP) in 293T-FLAG-LRP6 cells (protein, UniProt P49908 20-381)
chain: ESQDQSSLCKQPPAWSIRDQDPMLNSNGSVTVVALLQASUYLCILQASKLEDLRVKLKKEGYSNISYIVVNHQGISSRLKYTHLKNKVSEHIPVYQQEENQTDVWTLLNGSKDDFLIYDRCGRLVYHLGLPFSFLTFPYVEEAIKIAYCEKKCGNCSLTTLKDEDFCKRVSLATVDKTVETPSPHYHHEHHHNHGHQHLGSSELSENQQPGAPNAPTHPAPPGLHHHHKHKGQHRQGHPENRDMPASEDLQDLQKKLCRKRCINQLLCKLPTDSELAPRSUCCHCRHLIFEKTGSAITUQCKENLPSLCSUQGLRAEENITESCQURLPPAAUQISQQLIPTEASASURUKNQAKKUEUPSN
As to B2, the figures for the binding entry in assay [4] and in assay [5] were “binds” and “no binding”, respectively.
